{"source": "PubChem BioAssay AID686979", "about": "(National Center for Advancing Translational Sciences (NCATS), 2013)", "note": "Several values for one entry are separate records, joined by “and”; a condition that tells them apart may be missing. Identical values can stand only once. Hit rate of the full screen: of about 420,000 compounds, about 50,000 (12%) were called active. The shares of active, inactive and inconclusive entries below differ from those in the screen. Calls follow the shape of the dose curve; as a rule, active = well fitted inhibition curve with a large enough effect; inconclusive = small, poorly fitted or top-dose-only effect; inactive = flat fitted curve, though single readings scatter. Potencies of inconclusive entries are doubtful fits and often do not repeat. % is scaled to controls: 0 for no effect and ±100 for the full control effect; potency is read from the fitted curve at half-maximal effect; tags tell the direction and shape of the fitted curve."}
{"experiment": "qHTS for Inhibitors of human tyrosyl-DNA phosphodiesterase 1 (TDP1): qHTS in cells in presence of CPT; also: nearly all actives have a fitted effect of over 55% in size", "conditions": "chicken DT40 Tdp1-/-;hTDP1 cells + 20 nM CPT, ATP luminescence, 48 h; activity change, negative = growth inhibition: at 46.2 µM (top of the series) unless noted", "how_it_was_run": "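Chicken DT40 Tdp1-/- cells complemented with human TDP1, 400 cells/well, exposed to compounds plus 20 nM camptothecin for at least 48 h at 37 C; viability read as ATP content by CellTiter-Glo luminescence.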"}
{"smiles": "CCC(=O)N1CCCC(C(=O)c2ccc(-c3ccccc3)cc2)C1", "note": "(stereo not given)", "Potency": "inconclusive: 29.1 µM [inhibitor, single point]"}
{"smiles": "COc1ccccc1-n1cnc2cc(NCc3ccco3)ccc21", "Potency": "active: 1.46 µM"}
{"smiles": "COc1ccc(/C=N/NC(=O)COc2cc(C)cc(C)c2)cc1COC(C)=O", "activity change, negative = growth inhibition": "inactive: -1.4%"}
{"smiles": "COc1ccc(OC)c(NC(=O)CSc2nnnn2C2CCCC2)c1", "activity change, negative = growth inhibition": "inactive: 10.4%"}
{"smiles": "CC(C)N(Cc1cn(C)nc1-c1cccc(Cl)c1)Cc1nccn1C", "Potency": "inconclusive: 25.9 µM [inhibitor, single point]"}
{"smiles": "Cc1cnc(C)c(-c2cccc3c2OC(CNC(=O)C2(c4ccc(Cl)cc4)CC2)C3)n1", "note": "(stereo not given)", "activity change, negative = growth inhibition": "inactive: -13.8% [at 9.04 µM]"}
{"smiles": "Cc1ccc(/C=N/NC(=O)c2ccc(NC(=O)c3ccc(Cl)cc3)cc2)o1", "activity change, negative = growth inhibition": "inactive: 4.84%"}
{"smiles": "CCn1nccc1NC(=O)c1csc([C@@H]2O[C@H](CO)[C@H](O)[C@H](O)[C@H]2O)n1", "activity change, negative = growth inhibition": "inconclusive: -34.1% [inhibitor]"}
{"smiles": "CN(C(=O)c1ccc(NC(=O)C2CCCN(C(=O)OC(C)(C)C)C2)cc1)C1CCCCC1", "note": "(stereo not given)", "Potency": "inconclusive: 29.1 µM [inhibitor, single point]"}
{"smiles": "Cc1cc(Nc2ccccc2C)c2cccc(C)c2n1", "Potency": "inconclusive: 14.6 µM [inhibitor, single point]"}
{"smiles": "CCOc1ccc(S(=O)(=O)Nc2cccc(C(=O)N(C)Cc3cccc(OC)c3OC)c2)cc1", "Potency": "inconclusive: 18.4 µM [inhibitor, single point]"}
{"smiles": "CN(Cc1ccccc1Cl)C(=O)CNC(=O)C12CC3CC(CC(C3)C1)C2", "Potency": "active: 20.6 µM"}
{"smiles": "Cc1cc(S(=O)(=O)N2CCOCC2)ccc1OCC(=O)Nc1ccc(F)c(Cl)c1", "Potency": "inconclusive: 29.1 µM [inhibitor, single point]"}
{"smiles": "CCOc1ccccc1C(=O)NCCCCNC(=O)c1ccccc1OCC", "Potency": "inconclusive: 23.1 µM [inhibitor, single point]"}
{"smiles": "COc1cccc2sc(Nc3nnc(-c4ccc(F)cc4)o3)nc12", "Potency": "active: 5.8 µM"}
{"smiles": "COc1ccc(OC)c(NC(=O)CCN2CCCCCC2)c1", "activity change, negative = growth inhibition": "inactive: -15.4%"}
{"smiles": "CS(=O)(=O)CCC(C(=O)OCc1ccc(Br)cc1)N1C(=O)c2ccccc2C1=O", "note": "(stereo not given)", "activity change, negative = growth inhibition": "inconclusive: -30.4% [inhibitor]"}
{"smiles": "CC(C)NC(=O)COc1ccc(S(=O)(=O)N(C)Cc2ccccc2)cc1", "Potency": "inconclusive: 18.4 µM [inhibitor, single point]"}
{"smiles": "CCOc1ccc(C(=O)N2CC(=O)Nc3ccc(C)cc3C2c2ccc(F)cc2)cc1OCC", "note": "(stereo not given)", "Potency": "inconclusive: 4.11 µM [inhibitor, partial curve, poor fit]"}
{"smiles": "Cc1ccc(C(=O)NCC(c2ccc(Cl)cc2)N2CCCCC2)cc1", "note": "(stereo not given)", "Potency": "active: 11.6 µM"}
{"smiles": "COCCCNC(=O)CCCn1c(SCC(=O)c2ccc(Br)cc2)nc2c(sc3ccccc32)c1=O", "Potency": "inconclusive: 10.3 µM [inhibitor, partial curve]"}
{"smiles": "CCCc1cc(=O)oc2cc(C)cc(OCC(=O)NC3CCN(Cc4ccccc4)CC3)c12", "Potency": "inconclusive: 29.1 µM [inhibitor, single point]"}
{"smiles": "CCOC(=O)C1CCN(C(=O)COC(=O)CSc2ccccc2C)CC1", "activity change, negative = growth inhibition": "inactive: 7.52%"}
{"smiles": "CC1(C)OC(C(O)(c2ccccc2)c2ccccc2)[C@@H](C(O)(c2ccccc2)c2ccccc2)O1", "note": "(stereo not given in full)", "Potency": "inconclusive: 2.59 µM [inhibitor, full curve]"}
{"smiles": "CCCCc1c(CCC)c(=N)c2ccccc2n1C", "Potency": "active: 23.1 µM"}
{"smiles": "COC(=O)[C@H](CC(C)C)NCc1cccc(CN[C@@H](CC(C)C)C(=O)OC)c1", "Potency": "inconclusive: 29.1 µM [inhibitor, single point]"}
{"smiles": "CCOC(=O)/C=c1/s/c(=C/c2ccccc2OC)c(=O)n1CC(=O)N1CCOCC1", "Potency": "inconclusive: 18.4 µM [inhibitor, single point]"}
{"smiles": "Cc1ccc2nc(-c3ccc(NC(=O)CN4C(=O)NC(C)(c5ccc(OC(F)F)cc5)C4=O)cc3)sc2c1", "note": "(stereo not given)", "Potency": "active: 14.6 µM"}
{"smiles": "COc1ccc(OCC(=O)Nc2cccc3ncccc23)cc1", "Potency": "inconclusive: 18.4 µM [inhibitor, single point]"}
{"smiles": "COC(=O)c1ccc(CNC(=O)Cn2cnc3c(SC)nc(N)nc32)cc1", "Potency": "active: 23.1 µM"}
{"smiles": "CCCCC/C=C/C=C1/C(=O)C=C[C@@H]1C/C=C\\CCCC(=O)O", "activity change, negative = growth inhibition": "inactive: 0.906% [at 4.12 µM]"}
{"smiles": "COc1ccc(CN2C(=O)CSCC2(C)C(=O)Nc2c(C)cccc2C)cc1OC", "note": "(stereo not given)", "activity change, negative = growth inhibition": "inactive: -117%"}
{"smiles": "CCn1nccc1C(=O)Nc1ccc(S(=O)(=O)NC23CC4CC(CC(C4)C2)C3)cc1", "Potency": "inconclusive: 29.1 µM [inhibitor, single point]"}
{"smiles": "COc1cccc(C(C)(O)c2nc(-c3ccccc3C)cs2)c1", "note": "(stereo not given)", "Potency": "inconclusive: 29.1 µM [inhibitor, single point]"}
{"smiles": "COc1ccccc1CCNC(=O)CNC(=O)c1ccc2ccccc2c1", "Potency": "inconclusive: 14.6 µM [inhibitor, partial curve, poor fit] and inconclusive: 14.1 µM [inhibitor, single point]"}
{"smiles": "Brc1ccc(-c2csc(N/N=C/c3ccc4c(c3)OCO4)n2)cc1", "Potency": "inconclusive: 20.6 µM [inhibitor, partial curve]"}
{"smiles": "CC(C)(C)OC(=O)N(CCc1ccccc1)Cc1cccc(OCc2cccc(NC(=O)C3CCC3)c2)c1", "Potency": "inconclusive: 25.9 µM [inhibitor, single point]"}
{"smiles": "O=C1NC2(CCC3(CC2)OCCO3)NN1c1ccccc1", "activity change, negative = growth inhibition": "inactive: 6.76%"}
{"smiles": "COC(=O)c1ccc(NC(=O)c2cnn(-c3ccc(Cl)cc3)c2C2CCN(C(=O)OC(C)(C)C)CC2)cc1", "Potency": "inconclusive: 23.1 µM [inhibitor, single point]"}
{"smiles": "Nc1c(Cl)c(Cl)nc(C(=O)OCC(=O)NC2CCCCC2)c1Cl", "activity change, negative = growth inhibition": "inactive: 1.25%"}
{"smiles": "Cc1cccc(C)c1NC(=O)CSc1nnc(Cn2nnc(-c3ccccc3)n2)n1-c1ccccc1", "Potency": "inconclusive: 29.1 µM [inhibitor, single point]"}
{"smiles": "c1ccc(CN2CCN(c3nc4ccccc4s3)CC2)cc1", "activity change, negative = growth inhibition": "inactive: -17%"}
{"smiles": "C=CCn1c(C(C)n2c(-c3cnccn3)nc3ccccc32)nc2ccccc21", "note": "(stereo not given)", "Potency": "inconclusive: 23.1 µM [inhibitor, single point]"}
{"smiles": "COc1cc(CN2CCC(Oc3cc(C(=O)NC4CC4)ccc3OC)CC2)cc(OC)c1", "Potency": "inconclusive: 0.651 µM [inhibitor, single point]"}
{"smiles": "Cc1cccc2c(C(O)c3cn(C)c4ccccc34)c[nH]c12", "note": "(stereo not given)", "Potency": "active: 11.2 µM"}
{"smiles": "CC(C)(C)OC(=O)N1CCC(c2c(C(=O)N3CCCCC3)cnn2-c2ccc(F)cc2)CC1", "activity change, negative = growth inhibition": "inactive: 0.284%"}
{"smiles": "Cc1ccc(C(=O)C(C)OC(=O)c2cc(=O)[nH]c3ccccc23)cc1", "note": "(stereo not given)", "Potency": "inconclusive: 29.1 µM [inhibitor, single point]"}
{"smiles": "Cc1cc(CNC(=O)c2cnn(-c3ncc4c(n3)-c3ccccc3CC4)c2C2CC2)on1", "Potency": "active: 16.4 µM"}
{"smiles": "C=CCNC(=O)c1ccc(-n2cccc2)cc1", "Potency": "inconclusive: 23.1 µM [inhibitor, single point]"}
{"smiles": "CCSc1ccccc1C(=O)N1CCN(c2nc3ccccc3s2)CC1", "Potency": "inconclusive: 23.1 µM [inhibitor, single point]"}
{"smiles": "CC(C)c1cccc(C(C)C)c1Nc1cn[nH]c1", "Potency": "active: 14.6 µM"}
{"smiles": "CC1CCN(S(=O)(=O)c2ccc(NC(=O)Cc3ccc(S(=O)(=O)N4CCOCC4)s3)cc2)CC1", "Potency": "active: 18.4 µM"}
{"smiles": "CC(C)(C)OC(=O)N1CCC(NC(=O)c2nc[nH]c2C(=O)NCc2ccccc2)CC1", "Potency": "inconclusive: 25.9 µM [inhibitor, single point]"}
{"smiles": "c1ccc(Cn2nnc3c(NCc4ccc5c(c4)OCO5)ncnc32)cc1", "Potency": "inconclusive: 18.4 µM [inhibitor, single point]"}
{"smiles": "Cc1ccnc(N2CCCC(C(=O)NC3CC3)C2)n1", "note": "(stereo not given)", "Potency": "inconclusive: 2.91 µM [inhibitor, partial curve]"}
{"smiles": "CCc1ccc(-c2nn(-c3ccc(OC)cc3)c3c2cnc2ccc(OC)cc23)cc1", "Potency": "inconclusive: 20.6 µM [inhibitor, single point]"}
{"smiles": "COc1ccccc1NC(=O)C/C(C)=N/NC(=O)c1ccccn1", "activity change, negative = growth inhibition": "inactive: -1.72%"}
{"smiles": "CCN(CC)C(=O)c1c(NC(=O)c2ccccc2F)sc2c1CCC(C(C)(C)C)C2", "note": "(stereo not given)", "Potency": "active: 23.1 µM"}
{"smiles": "Clc1ccc(SCCN2CCNCC2)cc1", "Potency": "inconclusive: 29.1 µM [inhibitor, single point]"}
{"smiles": "Cc1cc2oc(C(=O)N(Cc3ccc(Cl)cc3)Cc3ccco3)c(C)c2cc1Cl", "Potency": "inconclusive: 29.1 µM [inhibitor, single point]"}
{"smiles": "CCCCNC(=S)N(C)/N=C/c1ccc(OCC(=O)Nc2ccc(OC)cc2)c(OC)c1", "Potency": "active: 23.1 µM"}
{"smiles": "CC1CCc2c(sc(NC(=O)CN3CCN(C(=O)c4ccco4)CC3)c2C#N)C1", "note": "(stereo not given)", "Potency": "active: 18.4 µM"}
{"smiles": "COc1ccccc1CSc1ncc(-c2ccc([N+](=O)[O-])cc2)[nH]1", "Potency": "inconclusive: 29.1 µM [inhibitor, single point]"}
{"smiles": "Cc1cc(=O)[nH]c(N/N=C/C2=C(N3CCOCC3)C(=C\\c3ccc(Cl)cc3)/CC2)n1", "Potency": "active: 20.6 µM"}
{"smiles": "COC(=O)c1sc(N)c(C(=O)OC)c1COC(=O)c1c(C)noc1C", "Potency": "active: 3.66 µM"}
{"smiles": "COc1ccc(NC(=O)N2CCCC3(CCNCC3)C2)cc1", "activity change, negative = growth inhibition": "inactive: 16.8%"}
{"smiles": "O=C(Cn1cnc([N+](=O)[O-])c1)NC1CCCC1", "activity change, negative = growth inhibition": "inactive: 34.3%"}
{"smiles": "CCN(CC(=O)NCc1cccs1)C(=O)c1cccc(S(=O)(=O)Nc2ccccc2OC)c1", "activity change, negative = growth inhibition": "inactive: -1.36%"}
{"smiles": "CCCCCc1ccc(-c2ccc(OC)cc2)nc1", "activity change, negative = growth inhibition": "inactive: 0.477%"}
{"smiles": "COC(=O)[C@H]1[C@H]2C[C@@H]3c4[nH]c5cc(OC)ccc5c4CCN3C[C@H]2C[C@@H](OC(=O)c2ccc(N)cc2)[C@@H]1OC", "Potency": "inconclusive: 29.1 µM [inhibitor, single point]"}
